Test results: paper PMC5474753 (Journal of molecular biology, 2016)

Target: the molecule itself
Test: FRET or BRET

B1: full-length FGFR2 C342R mutant (receptor)
chain: not shown
stoichiometry N: 2
